Measurements: patent US20060052454A1 (priority 2004, published 2006)

Assays:
[1] = system: injuries due to physical traumas; experiment: Glycine treatment of participants with injuries due to physical traumas; format: in vivo, human
Text: Physical Injuries: The persons participating in the study who suffered from recurrent pains as a result of injuries due to physical traumas included amateur and professional sportsmen and others who had injured themselves several years before and had undergone one or more surgeries to correct their continuing problems.

arthrosis and arthritis = experiment: Glycine treatment of study participants with arthrosis and arthritis
teeth and gum problems = system: teeth and gum problems
Text: Teeth and gum: This study included 146 cases of teeth and gum problems (e.g., tooth pain, gums that bleed easily, a high tendency to have tooth decay).
Her dentist has established a 2-4 year program of orthodontics, using a succession of bracing devices.

skin problems = settings: oral, after a few weeks

## N[C@H]1C(O)O[C@H](CO)[C@@H](O)[C@@H]1O (stereo partly drawn) [glucosamine, reference compound]
[1]; participants' earlier use, before glycine
  Improvement with glucosamine treatments: without any appreciable improvements

## NCC(=O)O [glycine, Glycine]
[1]; 15-20 grams daily, some instances
  Treatment results at higher daily dosages: even better treatment results
[1]; after one to two weeks
  Joint healing in young people (ages 17-27) with sports injuries: their joints were sufficiently healed to allow many of them to resume playing their sports
[1]; daily consumption of 10 grams
  Pain levels or frequency of occurrence after injuries: rapid reductions in their pain levels or its frequency of occurrence
  Time to reported improvements: after only a single week of treatments
Arthrosis and arthritis; 4-5 g/day after several months of treatment
  Effect of reduction of dosage to half: provoked a moderate return to the pain in their fingers
Arthrosis and arthritis; 10 g/day after dose reduction
  Effect of return to the initial dose: again produced the same improvements as before
Arthrosis and arthritis; 10 g/day oral
  Effectiveness of glycine treatment in arthrosis and arthritis: effective in all cases
  Pain relief, most people under 40 years of age: some pain relief in the first week of treatment
  Time to first results, some people over 60 years old: more than four month to see the first results
Arthrosis and arthritis; 10 g/day oral, according to age and afflicted joint
  Time period in which treatment proved effective: between two weeks and four months
Arthrosis and arthritis; 50 arthrosis patients aged 50-65 years
  Effect of interruption of treatment: provoked the reappearance of the pain in their finger joints after some weeks
Arthrosis and arthritis; more than one year of treatment
  Heberden's or Bouchard's nodes, finger shape: recovered the normal shape of their fingers
Arthrosis and arthritis; older participants
  Duration of glycine treatment to significant decreases in adverse effects of arthrosis on joints: 2-3 weeks
Arthrosis and arthritis; prolonged oral treatment
  Negative results (gastric or intestinal problems, symptoms similar to seasickness): No negative results
Arthrosis and arthritis; with time of treatment
  Recovery reported by many participants without analgesic or anti-inflammatory drug: full recovery and total lost of pain in all their damaged joints
Arthrosis and arthritis; within a few weeks of treatment resumption
  Effect of return to glycine treatment after interruption: their pain was again eliminated
Teeth and gum problems; 146 cases
  Time to improvement of teeth and gum problems, some cases: improvements were obtained after only two weeks of treatment
Teeth and gum problems; about 30 participants
  Orthodontic problems: observed to be improved
Teeth and gum problems; after three months of glycine with bracing
  Teeth and jaw structure, child with bracing program: their teeth and the jaw structure were normal
Teeth and gum problems; men in their 50s, lifelong bleeding gums
  Time to total elimination of symptoms (bleeding gums): 6-12 months
Skin problems
  Skin pigmentation conditions, including lentigo: improvement in skin pigmentation conditions
  Skin smoothness and shine: improvements in their skin's smoothness and shine
  Skin wrinkles and sagging: reductions in skin wrinkles and sagging
